Consider nine molecules from paper PMC9911399, “Two distinct binding modes provide the RNA-binding protein RbFox with extraordinary sequence specificity”.

T1: RBFOX1 RRM RbFoxmut (Fox-RRM*) (Homo sapiens, UniProt Q9NWB1 109-208, R118D;E147R;N151S;E152T)
T1 sequence: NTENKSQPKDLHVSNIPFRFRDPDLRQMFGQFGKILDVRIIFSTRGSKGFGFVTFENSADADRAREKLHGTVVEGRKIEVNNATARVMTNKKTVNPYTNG

B1: GACUUUU (DNA:RNA)
RNA: GGGAGACCGGAAUUCAGAUUGUCCGACUUUUUUAAAUCCCGUCGUAGCCACCA
DNA 1: CAATCTGAATTCCGGTCTCCC
DNA 2: TGGTGGCTACGACGGGATT
B2: AAGUCUC (DNA:RNA)
RNA: B1 RNA with G25A, C27G, U29C, U31C
DNA 1: CAATCTGAATTCCGGTCTCCC
DNA 2: TGGTGGCTACGACGGGATT
B3: AGUAUUG (DNA:RNA)
RNA: B1 RNA with G25A, A26G, C27U, U28A, U31G
DNA 1: CAATCTGAATTCCGGTCTCCC
DNA 2: TGGTGGCTACGACGGGATT
B4: UUGGUAG (DNA:RNA)
RNA: B1 RNA with G25U, A26U, C27G, U28G, U30A, U31G
DNA 1: CAATCTGAATTCCGGTCTCCC
DNA 2: TGGTGGCTACGACGGGATT
B5: UUCGUUU (DNA:RNA)
RNA: B1 RNA with G25U, A26U, U28G
DNA 1: CAATCTGAATTCCGGTCTCCC
DNA 2: TGGTGGCTACGACGGGATT
B6: ACACAGA (DNA:RNA)
RNA: GGGAGACCGGAAUUCAGAUUGUCCACACAGAUUAAAUCCCGUCGUAGCCACCA
DNA 1: CAATCTGAATTCCGGTCTCCC
DNA 2: TGGTGGCTACGACGGGATT
B7: AACAGCG (DNA:RNA)
RNA: B1 RNA with G25A, U28A, U29G, U30C, U31G
DNA 1: CAATCTGAATTCCGGTCTCCC
DNA 2: TGGTGGCTACGACGGGATT
B8: GGUCCCU (DNA:RNA)
RNA: B1 RNA with A26G, C27U, U28C, U29C, U30C
DNA 1: CAATCTGAATTCCGGTCTCCC
DNA 2: TGGTGGCTACGACGGGATT
B9: CUAGUCA (DNA:RNA)
RNA: B6 RNA with A25C, C26U, C28G, A29U, G30C
DNA 1: CAATCTGAATTCCGGTCTCCC
DNA 2: TGGTGGCTACGACGGGATT

Numbering of substitutions follows the chain as printed; changes in the protein carry UniProt numbers. This is one part of the list.

For the assay, the target named is T1, RBFOX1 RRM RbFoxmut (Fox-RRM*). In words: EMSA; HiTS-Eq, 1 nM pool, 10 min; buffer printed only for the single-RNA assays: 10 mM Tris pH 7.5, 150 mM NaCl, 3.4 mM EDTA, 0.001% NP-40, 30 C. The note with it: tags: His6 N-terminal (pET28a); label: 5' 32P. The gist of the method: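 Purified RbFox RRM, wild type or mutant, was incubated for 10 min in 50 µL with 1 nM of a 5′-radiolabelled RNA pool carrying 7 randomized nucleotides, whose flanks were annealed to DNA oligonucleotides, over a series of increasing protein concentrations. Unbound RNA was resolved on 8% native PAGE, cut out, reverse-transcribed, barcoded by PCR and sequenced on an Illumina HiSeq 2500. Relative association constants were derived from changes in read counts for each RNA species versus the control reaction and normalised to the cognate motif.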
Consider B1, for which the binding signal is 0.0852 KA relative to UGCAUGU. With B2, the binding signal was 0.0679 KA relative to UGCAUGU. Take B3: the binding signal was 0.298 KA relative to UGCAUGU.

On to B4, for which the binding signal was 0.208 KA relative to UGCAUGU. With B5, the binding signal was 0.112 KA relative to UGCAUGU. The same measure for B6: 0.092 KA relative to UGCAUGU; for B7: 0.0694 KA relative to UGCAUGU; for B8: 0.043 KA relative to UGCAUGU. The result for B9 reads 0.0885 KA relative to UGCAUGU.
